# Measurements reported in the supplement of paper PMC11417369.
# ± gives the standard deviation of the averaged measurements. Some of the results follow.
# Test system: PfAP2-EXP AP2 domain (GST-tagged)
# Assay: gcPBM binding intensity (ln(normalized median fluorescence intensity)); higher = stronger DNA binding
# Outline: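 Plasmodium falciparum DNA-binding domains carrying a GST tag were expressed in E. coli and applied for 1 h, at about 25 μg on average, to an Agilent 4 × 180k array. The array held primer-extended double-stranded 36-bp intergenic genomic probes together with negative controls, and binding took place in 1× PBS with 1% milk, 0.2 mg/ml BSA, 0.5% salmon testes DNA and 0.03% Triton X-100. An Alexa488 anti-GST antibody detected bound protein, and the array was scanned at 488 nm. Binding intensity is taken as the highest Masliner-normalised natural-log median intensity across replicate spots of either probe orientation.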
row,Sequence,gcPBM binding intensity (ln)
1,ATTGTGCACTTATATGCACACATTTTAGTTTTTTTT [CACACA_site2028],8.54 ± 0.12
2,GGACTTTATAAAAATGGTACACGCAATTCTATAATC [XGTACX_site6515],8.55 ± 0.33
3,TAATATATAAAAAGATGTACTTTTGCAAGTTCCTTT [XGTACX_site8519],8.4 ± 0.4
4,GGTACATACAAACACACACACAAAAAAAAAAAAATA [CACACA_site1577],8.46 ± 0.6
5,ATATATATATATGTATGTACGTATGTATGTATGAAT [XGTACX_site4857],9.91 ± 0.29
6,TGTACAGTAAATACAACACACATTTGTATAAATATA [CACACA_site4705],8.54 ± 0.39
7,TATTGTATAAAAATAACATGCAATCCTTATACTGCT [TGCATGCA_site345],8.41 ± 0.32
8,AATGACATTCTTACACGTACAAAATAAAAAATAAAA [XGTACX_site6932],8.72 ± 0.53
9,ATTTATTTTATAATATATAAATGATATATCTTATTA [CACACA_negctrl_site66],8.03 ± 0.38
10,TATATATTATATTCATGTACGTAAAAATTTTGAATA [XGTACX_site6734],8.63 ± 0.49
11,CCATATGATATATATTGTACATTATATATTATTTCT [XGTACX_site1697],8.48 ± 0.33
12,TATGTTGTTTATTTAGTGCATATTTAAATATTATAA [GTGCAC_site9601],8.92 ± 0.14
13,TTTTCTTTCTTGTTTCGTATATTATAAAAAAAAAAG [CACACA_negctrl_site854],8.62 ± 0.49
14,GTATTTTGCATAAATGCATGTAAATATATACCTACC [TGCATGCA_site957],8.8 ± 0.071
15,TATTTGGGTATTTTTACACACATTAAAATATATATA [CACACA_site5800],8.2 ± 0.33
16,TGTAGATAAAATAAACGTACGTATTGATTTTTTTCA [XGTACX_site1610],8.26 ± 0.41
17,TATTTGTAAAGACATGCATGGTACTTTTAAAACATA [TGCATGCA_site7],8.9 ± 0.42
18,ACATATGAATATAATACACACTTGTATTCTTAATAT [CACACA_site5085],8.33 ± 0.34
19,ATAATTCCATAAAATAGACACACGAATGTATAATAT [CACACA_site477],8.62 ± 0.49

row,Sequence,gcPBM binding intensity (ln)
1,CAGTTGTTAATTTGTGTGCACCAAATATTATACATA,9.34 ± 0.71
2,TGGTAATACCCATACACACACACATACACATATATA [CACACA_site8877],8.61 ± 0.43
3,TTAATATTTGTTCTGATCCTTTTATTCAACTTTTTT [CACACA_negctrl_site536],8.72 ± 0.52
4,GTATAAAAATTTAGGAGTACAATATATTTATAATAT [XGTACX_site2127],8.705 ± 0.035
5,TCTAATTTAAAATACACACACATATCTATAATATAT [CACACA_site7029],8.35 ± 0.38
6,GTAATAAAAAATTAATGTACTTTATATAATATATTA [XGTACX_site5935],8.16 ± 0.32
7,TTTTTGTATTCTCCGGACTACATTATGTTGTAAATG [CACACA_negctrl_site691],8.83 ± 0.51
8,TTTTACGTGAGTAATACACACATATAAGTTTATATA [CACACA_site4120],8.22 ± 0.45
9,GGCATACACGAACACACACACACACGCACATATATA [CACACA_site6426],8.96 ± 0.52
10,TATAACTTTTTTAATACACACAAATATTTATTTATA [CACACA_site7425],8.39 ± 0.37
11,TGTATGTTAAATACAACACACAAAAAAAAACAAGTT [CACACA_site4324],8.43 ± 0.37
12,TACCACTTTCGAAGTAGTACATGGCTTTTTTTTTTT [XGTACX_site8379],8.64 ± 0.54
13,GTTATAATTTAGTCAAGTACATGCGTATGTATATTC [XGTACX_site3763],8.66 ± 0.33
14,ATATATATATGTGTGTGTACATATGATTTCGCACTT [XGTACX_site4449],9.63 ± 0.24
15,TATACAGATAAATACACACACATATATATATATATA [CACACA_site4178],10.1 ± 0.28
16,TAATATATATTATATACACACATATATATATATATA [CACACA_site428],10.1 ± 0.28
17,CACAGAAATATTCTTATACACACTGTTCTTATATTC [CACACA_site288],8.61 ± 0.42
18,TATAAATTAAAATCAGTGCATATTTTGAAAAACCTC,8.64 ± 0.16
19,TGAAATAACCCATGTGCATGCACTTCAATAACTGAA [TGCATGCA_site1041],9.85 ± 0.27

row,Sequence,gcPBM binding intensity (ln)
1,TATAAATTATAAATTGCACACATATTTTTATATTTA [CACACA_site8974],8.18 ± 0.39
2,ATATTATTATTAGTTTCACACATTTAATGAAACTAA [CACACA_site5677],8.51 ± 0.38
3,TGGAGGTCAGTTCACAGTACCCAGAAACTCTACGAG [XGTACX_site2007],8.41 ± 0.42
4,ATTACCATATAAAACACACAAACATACATACATACA [CACACA_site3729],9.24 ± 0.26
5,TATATATATATATATTGTACATATTAATATTAGAAA [XGTACX_site8923],10.1 ± 0.39
6,AATACTCAAAAGAATCGTACAAACAACACTCCCACG [XGTACX_site7564],8.82 ± 0.48
7,TTACATGTAAAAGGTACACACATTAGATATACAAAT [CACACA_site6651],8.94 ± 0.49
8,TATCATACCTTTTAATGTACACACATTTCTTTTTTG [XGTACX_site1655],8.9 ± 0.36
9,TTTTGGTTAATTCCCCCCATTACATTATGTCATGTC [CACACA_negctrl_site229],10.185 ± 0.007
10,TTTCATTTTTTTACATGTACGCAAAAGTGTGTAGTT [XGTACX_site6582],8.78 ± 0.31
11,GTAAATATTCATATATGTACTTATGATATTTGCTAA [XGTACX_site6828],8.39 ± 0.33
12,TAATACTTATATAAAGGTACACAATTTAACCGAATG [XGTACX_site7173],8.72 ± 0.4
13,CTTCCTTAGGAATGTACACACATATAAAATATGTTG [CACACA_site6355],8.53 ± 0.26
14,AAGAAAGAGTTCTGTTGTACAAAATATTAATATGTA [XGTACX_site7213],8.77 ± 0.6
15,ACATATATATATATATATTGATTTATTTATTTCCCT [CACACA_negctrl_site659],8.57 ± 0.12
16,ATATATATATATAAATGTACAAAAATATATATGTAA [XGTACX_site4531],10.04 ± 0.035
17,TAATTAACTTTATATGCATGTTAAAAATGTTATAAG [TGCATGCA_site761],8.29 ± 0.42
18,TATAAACAAAACAAAACATGCATAATACTATAAATT [TGCATGCA_site333],8.96 ± 0.41
19,CTTTATTATAAGATTACACACATGTGTTCTAATTTA [CACACA_site7479],8.38 ± 0.23
